{
  "source": "paper PMC10726135",
  "note": "The other results are listed elsewhere or left out. At the low end of the ranking the order means little. Measured with an extract: partners may take part in the binding.",
  "data": [
    {"target": "T1, HNF4alpha8 (COS-7 nuclear extract) (UniProt P41235-5)", "T1 sequence": "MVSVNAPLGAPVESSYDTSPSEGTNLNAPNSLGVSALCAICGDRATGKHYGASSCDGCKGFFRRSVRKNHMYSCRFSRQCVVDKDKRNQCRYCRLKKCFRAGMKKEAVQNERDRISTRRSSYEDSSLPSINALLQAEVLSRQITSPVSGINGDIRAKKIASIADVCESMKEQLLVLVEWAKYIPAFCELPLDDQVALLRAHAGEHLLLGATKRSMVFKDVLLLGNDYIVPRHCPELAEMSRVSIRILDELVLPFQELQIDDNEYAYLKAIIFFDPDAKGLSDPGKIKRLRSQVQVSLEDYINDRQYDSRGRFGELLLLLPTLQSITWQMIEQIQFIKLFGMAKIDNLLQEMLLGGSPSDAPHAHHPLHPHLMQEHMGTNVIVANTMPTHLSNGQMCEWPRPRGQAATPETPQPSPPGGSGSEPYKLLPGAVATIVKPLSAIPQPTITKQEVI", "experiment": "protein-binding microarray", "details": "COS-7 nuclear extract on double-stranded Agilent 4x180k PBM; binding buffer, salt, pH and temperature not given; high values mean tight binding; double strand, one strand shown; sequences stand for … in …GCCTAGGGAGATTAGAGTATCGGTCGA", "values": [
      {"sequence": "TTTCCGCTAAGTCCAAAGGTAAAAACTGGC", "binding signal (log2 normalized intensity)": 3.83},
      {"sequence": "TTTGACACAAAGGGAGGCCTAGACACAGAC", "binding signal (log2 normalized intensity)": -1.42},
      {"sequence": "AACTCCAGCTGGGCATTAAAGGATATCATC", "binding signal (log2 normalized intensity)": -1.14},
      {"sequence": "GAGAGTTCCCTTGGAATGCCAGATGACCTT", "binding signal (log2 normalized intensity)": 4.6},
      {"sequence": "TCTGCACAAAATACAAGTCGTAAAGACCTT", "binding signal (log2 normalized intensity)": 0.877},
      {"sequence": "TATCCCGCTGCTTCCACCAGGGCTAGACCC", "binding signal (log2 normalized intensity)": -1.25},
      {"sequence": "GAAGGTCAGGAGCCCCACAGAGCAAAGGTC", "binding signal (log2 normalized intensity)": 7.03},
      {"sequence": "CAGAGCCTCCCCATTGTAGATTCAATAATA", "binding signal (log2 normalized intensity)": 1.29},
      {"sequence": "CCCTTCCCCCAACAGGGCTCCTGTTCAGCA", "binding signal (log2 normalized intensity)": 2.82},
      {"sequence": "AAATAAGGAATGTGAAATGAATTTACAAAC", "binding signal (log2 normalized intensity)": -1.24},
      {"sequence": "GAGTCATTATCTTTATTATCCCAGTAGAGA", "binding signal (log2 normalized intensity)": 1.51},
      {"sequence": "GAGCAGGCCATGTGCAGAGGAGGGGGCAGG", "binding signal (log2 normalized intensity)": -1.33},
      {"sequence": "TGTGAAATGAATTTACAAACAAATGCAAAA", "binding signal (log2 normalized intensity)": -1.3},
      {"sequence": "ATTTTGCATTGCTCACATAGCTGGGACTGT", "binding signal (log2 normalized intensity)": 0.108},
      {"sequence": "GTGTGTGTGTGTGTGTCTGTAGTTTTCGTT", "binding signal (log2 normalized intensity)": 2.47},
      {"sequence": "AGACTTGGGGCCAAAAAATTCCAGGCACAG", "binding signal (log2 normalized intensity)": -1.42},
      {"sequence": "TACTTTGCTTTTATCTACCAGGATGTGTGA", "binding signal (log2 normalized intensity)": 1.78},
      {"sequence": "GGGTGTGAGAGAGAAGGCAAGATTTTGTCC", "binding signal (log2 normalized intensity)": -0.417},
      {"sequence": "CCCCTTTCCACTCTACCGTCCTCCCCCACG", "binding signal (log2 normalized intensity)": 4.19},
      {"sequence": "AGGGTGAAAGTACAGTGATGTTTGTCAAAT", "binding signal (log2 normalized intensity)": 1.61},
      {"sequence": "GCCAATCTCTGGCATGTATTTATCAACATT", "binding signal (log2 normalized intensity)": 0.616},
      {"sequence": "ATCTGTGCCACAGGTATTTCTGTTGTTGAT", "binding signal (log2 normalized intensity)": 0.411},
      {"sequence": "CTGTAAAACTCCTGTGCAAGTAATTAAACA", "binding signal (log2 normalized intensity)": -1.14},
      {"sequence": "ATCTAAGGACAAAGTCCAAGGAAGGGCAAA", "binding signal (log2 normalized intensity)": 5.15},
      {"sequence": "TCTTTCTGGAACCTACAGCTGGGGCCACCT", "binding signal (log2 normalized intensity)": -1.34},
      {"sequence": "TCCAAGGCGGTGTGGAGGTCTACCAGGAAT", "binding signal (log2 normalized intensity)": -0.879},
      {"sequence": "ATTGGAAGCTCTTTCCCTCCACCAAGTTTC", "binding signal (log2 normalized intensity)": 1.41},
      {"sequence": "CCCTCGACCTTTGCCCTCCATAAGGGGGAG", "binding signal (log2 normalized intensity)": 6.74},
      {"sequence": "AATGCTTTACAAGGTGGTTGCTGTTATCTT", "binding signal (log2 normalized intensity)": 1.04},
      {"sequence": "CCGTGACCCTCAGGAACCAAGCATTTTGCA", "binding signal (log2 normalized intensity)": -0.757},
      {"sequence": "AAGAATTCCTAATAATACTGACTGAGAAAC", "binding signal (log2 normalized intensity)": -1.23},
      {"sequence": "TTGGTGGTGAGGGTGGGCCTGGGGGGAGAC", "binding signal (log2 normalized intensity)": -1.36},
      {"sequence": "ATAAGAACACAAAAAGCCTGAGCATCTTAT", "binding signal (log2 normalized intensity)": -1.31},
      {"sequence": "ATGACTCACTCAAGGCAGCTCAGCTAGTGA", "binding signal (log2 normalized intensity)": -1.37},
      {"sequence": "ACCCTCATTTGCTTGACCCGGGTACTGGAA", "binding signal (log2 normalized intensity)": 2.08},
      {"sequence": "CTAGGAGCATGTCAAAAGCTAAATACCCTC", "binding signal (log2 normalized intensity)": -0.824},
      {"sequence": "TCAAAGTCCAAATAGCGCTAACTCTATATC", "binding signal (log2 normalized intensity)": 0.779},
      {"sequence": "TCACTTAAAATGAGACTTCCCAGCTGCTGG", "binding signal (log2 normalized intensity)": -1.4},
      {"sequence": "TCTCTCAGTCTCTGTGGGAGAGTAAGTGCT", "binding signal (log2 normalized intensity)": 0.228},
      {"sequence": "CTGACTGCTGACCTTTAAGCCTATAGTTTC", "binding signal (log2 normalized intensity)": 3.37},
      {"sequence": "TACTCAAAGGTTAACATTCTTGCTTTCTGA", "binding signal (log2 normalized intensity)": 1.05},
      {"sequence": "CTACCTTTGCTCTTAATTCAATGGGGTGGG", "binding signal (log2 normalized intensity)": 1.49},
      {"sequence": "GCTCACTATTAACTTTTCCATGTCCAAAGG", "binding signal (log2 normalized intensity)": 3.02},
      {"sequence": "AGTTTTGAGTGTGTTTCTTGTTTCAGAGTA", "binding signal (log2 normalized intensity)": 1.38},
      {"sequence": "CTTTCCTGTTGGGGAGCAAAGGTTAGCAAG", "binding signal (log2 normalized intensity)": 4.65},
      {"sequence": "TCGGCTCTCAGCGGAACTTTCCTCTCCGCG", "binding signal (log2 normalized intensity)": -1.35},
      {"sequence": "GTCTCAGGTGGAGATAAGGAATTTGTTAAG", "binding signal (log2 normalized intensity)": 0.851},
      {"sequence": "CTCCTGCGGTCCGGACTCTGCCCCACAATT", "binding signal (log2 normalized intensity)": 4.69},
      {"sequence": "ATCCAACCTTCTCCCACTTCCCTGCCTTTG", "binding signal (log2 normalized intensity)": 0.565},
      {"sequence": "TTGTACTTTGGAGTTTACTTTAGATGTGTT", "binding signal (log2 normalized intensity)": 3.36},
      {"sequence": "CAGATCACAAAGGAGCTTGTAAGCCACAGT", "binding signal (log2 normalized intensity)": -1.3},
      {"sequence": "TGTGAAGAGTGTGGACTTTCACCTCCACCA", "binding signal (log2 normalized intensity)": 6.7},
      {"sequence": "TTTGTCGCCTCTGACTTCTGACTTTTACCC", "binding signal (log2 normalized intensity)": 2.96},
      {"sequence": "GGCTCAATGAGGTCAATAGTCCAGATACAG", "binding signal (log2 normalized intensity)": 4.17},
      {"sequence": "GTGATACTCAAGGCATTTTCTTGTTGACTT", "binding signal (log2 normalized intensity)": 0.336},
      {"sequence": "TCCCCAGAGCCCCCTTGATGCATCAGACCC", "binding signal (log2 normalized intensity)": 4.7},
      {"sequence": "GGAAAACCAGAGACCTTTGTTCACTTGTTT", "binding signal (log2 normalized intensity)": 3.09},
      {"sequence": "GATACTGATAACATGAGGTAGAGGGACACT", "binding signal (log2 normalized intensity)": -1.34},
      {"sequence": "ACCATGAGGTGACGGCTAAGAGAAATCCAC", "binding signal (log2 normalized intensity)": -1.33},
      {"sequence": "ATGTAATGTATGCATAGACTGCCCAGAATT", "binding signal (log2 normalized intensity)": 0.899},
      {"sequence": "GGTGTGCTGTTAGCTGAAGGACGTCAGAAC", "binding signal (log2 normalized intensity)": -0.834},
      {"sequence": "GGGGGCAAGGTACACCATCTATGAGCTCAA", "binding signal (log2 normalized intensity)": 2.6},
      {"sequence": "GGCTTTTGGGCCCTGTCTGATAAGGGTGTT", "binding signal (log2 normalized intensity)": 0.84},
      {"sequence": "TTGTTGGGTCAGTTTATCGAAAATCCCCCA", "binding signal (log2 normalized intensity)": 3.92},
      {"sequence": "CATTTGGGGTCAGATAATTCTTTGCTGTGG", "binding signal (log2 normalized intensity)": 1.85},
      {"sequence": "ATGGGATGACCTTTGAGCAATAGGAAATGG", "binding signal (log2 normalized intensity)": 4.79},
      {"sequence": "ACTTTCCCCCCTCACACTTTGGCTACTCAG", "binding signal (log2 normalized intensity)": 3.01},
      {"sequence": "ATCCCATTCCCTCTAATCTGGGACAAGGGG", "binding signal (log2 normalized intensity)": -1.24},
      {"sequence": "CTCTGAGTTTTGAGTGTGTTTCTTGTTTCA", "binding signal (log2 normalized intensity)": 1.51},
      {"sequence": "TTTGTGTGTTCCTTTTTCTGTTCAATGGTG", "binding signal (log2 normalized intensity)": 2.44},
      {"sequence": "AGTATCCTGGTAGTGCGACAAGAATGTGGT", "binding signal (log2 normalized intensity)": 0.616},
      {"sequence": "GGTCTCCTTGCCCCACCCCCCACCCCAGAA", "binding signal (log2 normalized intensity)": 6.87},
      {"sequence": "CCAGCCCCGGGAATTCTGGGTAGTGTAGTT", "binding signal (log2 normalized intensity)": 1.02}
    ]}
  ]
}
